Measured values published in PubChem BioAssay AID485344 (National Center for Advancing Translational Sciences (NCATS), 2010).
The whole screen tested about 340,000 compounds, of which about 6,900 (2%) were called active. Cut-off read from the data, not from the text of the source: active = inhibition above about 30%; inactive = below that, where a call was filed. Only a part is listed here, and it is no random draw. The source gives no active or inactive call for entries shown without one.

Target: D(2) dopamine receptor (Homo sapiens) (UniProt P14416)
Assay: HTS Assay for Allosteric Antagonists of the Human D2 Dopamine Receptor: Primary Screen for Antagonists; note: 0% is about no effect
Settings: HEK293 TREx D2 cells, calcium flux, dopamine EC80; at 10 µM; stronger effect = higher value
Summary of the method: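 Measurement of antagonist activity uses fluorescent calcium dye in inducible HEK293 T-REx D2 cells: 10 s baseline, compound addition with 180 s read, EC80 dopamine addition with a further 180 s read.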

UniProt P14416, sequence (P14416 whole entry, looked up): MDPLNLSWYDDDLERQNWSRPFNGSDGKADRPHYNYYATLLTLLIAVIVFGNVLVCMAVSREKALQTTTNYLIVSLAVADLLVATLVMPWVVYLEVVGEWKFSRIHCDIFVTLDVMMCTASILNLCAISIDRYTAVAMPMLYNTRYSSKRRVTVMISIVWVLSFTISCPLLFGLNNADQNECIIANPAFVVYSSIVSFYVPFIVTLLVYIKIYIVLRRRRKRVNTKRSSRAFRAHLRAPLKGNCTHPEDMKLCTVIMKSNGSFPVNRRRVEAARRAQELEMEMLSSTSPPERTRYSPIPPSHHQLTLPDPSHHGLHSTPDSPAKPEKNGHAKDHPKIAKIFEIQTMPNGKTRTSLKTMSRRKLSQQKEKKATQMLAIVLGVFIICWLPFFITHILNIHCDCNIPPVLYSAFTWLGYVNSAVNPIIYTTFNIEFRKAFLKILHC

Compound | inhibition
Cc1ccc(/C=C/c2onc(C)c2S(=O)(=O)N2CCC(C(=O)N3CCC(N(C)C(C)C)CC3)CC2)cc1 | 1.41%
CCOc1ccc(NC(=O)CCN2CCN(c3ccccc3)CC2)cc1 | active: 83.2%
CCOC(=O)c1ccccc1NC(=O)CSc1nc2cn(CC)nc2c(=O)n1Cc1ccc(Cl)cc1 | 11.4%
Cc1ccc2c(c1)c1c(c(=O)n(-c3cccc(Cl)c3)c(=O)n1CC(=O)Nc1c(C)cccc1C)n2C | -8.71%
Cc1ccc(CN2CCSc3ccc(C(=O)N4CCN(c5ccccc5)CC4)cc32)cc1 | -0.257%
COc1ccc(N2CCN(C(=O)C3CCN(S(=O)(=O)c4cccs4)CC3)CC2)cc1 | -27.6%
COc1ccc(CNC(=O)C(=O)Nc2ccc(OC)cc2OC)cc1 | 7.78%
CCOC(=O)c1cnc2c(C)c(Cl)ccc2c1NCCc1ccccc1 | 17.8%
O=C(Cn1cc(S(=O)(=O)Cc2cccc(Cl)c2)c2ccccc21)NCCc1ccccc1 | -4.07%
Clc1cccc(-n2ncc3c(N4CCCCC4)ncnc32)c1 | -12.2%
Cc1ccc(NC(=O)/C(C#N)=C/c2ccc(C(C)C)cc2)cc1C | -11.2%
CCOc1ccccc1C(=O)NC1CC2CCCC(C1)N2Cc1ccc(C)cc1 (stereo not given) | active: 83.8%
CC(=O)Nc1nonc1-c1nnc(SCC(=O)N(C)c2ccccc2)n1C | -17.7%
O=C(Cn1c(=O)nc(-c2ccccc2F)c2cc(Cl)ccc21)N1CCN(c2ccccc2F)CC1 | 16.4%
CCCCC(CC)CNC(=O)CN1C(=O)CSc2ccc(S(=O)(=O)N3CCOCC3)cc21 (stereo not given) | 18.3%
CCOc1ccccc1N(CC)C(=O)c1cc2c(=O)[nH]c3ccc(C)cc3c2s1 | 2.77%
COC(=O)c1scc(-c2ccc(C)cc2)c1S(=O)(=O)Nc1cc(OC)c(OC)c(OC)c1 | -4.36%
COc1ccc(CNC(=O)c2c3c(nc4ccccc24)C(=O)N(C2CCCCC2)C3)c(OC)c1 | 11.8%
CS(=O)(=O)Nc1cccc(C2=NN(S(=O)(=O)c3ccc(F)cc3)C(c3cccs3)C2)c1 (stereo not given) | active: 31.2%
C=C(C)CSc1nc2sc3c(c2c(=O)n1-c1ccccc1)CC(C(C)C)OC3 (stereo not given) | 0.817%
CCC1CN(C(=O)N2CCC(C(=O)NCc3cccc(C)c3)CC2)c2ccccc2O1 (stereo not given) | 4.61%
COc1ccc(Cn2c(SCc3ccc(C(=O)NC(C)C)cc3)nc3cccnc32)cc1 | 7.55%
CCc1ccc(CNC(=O)c2ccc(NC(=O)N3CCCCc4ccccc43)cc2)cc1 | 6.22%
COc1ccccc1NC(=O)c1cccc(S(=O)(=O)N2CCCCCC2)c1 | -17%

Compound | inhibition
Cc1c(Cl)cccc1NC(=O)Nc1nnc(N2CCCCCC2)s1 | -11.7%
Cc1ccc(C(=O)Nc2cccc(C(=O)O)c2)cc1S(=O)(=O)N1CCCC1 | -9.02%
Cc1c(NS(=O)(=O)c2ccc(NC(=O)CCC(=O)O)cc2)c(=O)n(-c2ccccc2)n1C | active: 30.1%
CSc1cccc(Nc2nc3c(S(=O)(=O)c4ccccc4)nnn3c3ccc(Cl)cc23)c1 | -1.11%
O=C(Cn1ncc2ccc(Cl)cc21)NCc1ccc(F)cc1 | 20.6%
O=C1CN(C(=O)COc2ccc(Cl)cc2Cl)c2ccccc2N1 | active: 30.2%
O=C(c1ccc2c(c1)N(Cc1ccc(F)cc1)C(=O)c1ccccc1S2=O)N1CCC(Cc2ccccc2)CC1 (stereo not given) | -3.56%
COc1ccc(-c2[nH]ncc2C(=O)NCc2ccccc2C)cc1 | -2.21%
CC(=O)N1CCCc2cc(S(=O)(=O)N3CCC(C(=O)NCc4ccc(C)cc4)CC3)ccc21 | 3.26%
COC(=O)c1ccccc1NC(=O)Cn1c(=O)n(-c2cccc(OC)c2)c(=O)c2c(C)c(C(=O)N(C)C)sc21 | -2.19%
Cc1onc(-c2ccccc2Cl)c1C(=O)Oc1cc(F)cc(F)c1 | 16%
Cc1ccc(CCNC(=O)Cn2nc(-c3ccc(C)cc3)ccc2=O)cc1 | 15.3%
CCN(CC)CCNC(=O)c1cn(CC)c2ccc(S(=O)(=O)N3CCOCC3)cc2c1=O | 5.41%
O=C(Nc1ccc(O)cc1C(=O)O)c1ccc(NC(=O)c2ccco2)cc1 | active: 45.8%
CC(=O)Nc1cccc(NC(=O)C(=O)NCCc2sc(-c3ccccc3)nc2C)c1 | 11.9%
COc1ccc(OCC(=O)OCc2cc(=O)n3nc(C4CCCCC4)sc3n2)cc1 | 5.4%
COc1ccc(N2CCN(C(=O)c3cn(CC(C)C)c(=O)c4c3c3ccccc3n4C)CC2)cc1 | -11.7%
CCc1ccc(-c2nn(CC(=O)Nc3ccccc3)c3c2cnc2ccc(F)cc23)cc1 | 6.98%
CC(C)(C)C1CCc2c(sc(NC(=O)Cn3nnc(-c4ccccc4F)n3)c2C#N)C1 (stereo not given) | 7.09%
CCOc1ccc(N(C(=O)Cn2nnc3ccccc32)C(C(=O)NCc2ccccc2)c2ccc(OC)cc2)cc1 (stereo not given) | -3.32%
CCOC(=O)c1cc(-c2ccccc2)n(-c2cccc(C(=O)Nc3ccc(OC)cc3)c2)c1C | -4.29%
O=C(CSCc1ccccc1Cl)N1CCN(c2ccc(F)cc2)CC1 | 0.596%
CN1C(C(=O)Nc2ccc(F)cc2F)=CC(c2ccco2)=NS1(=O)=O | 14.5%
Cc1cccc(C)c1NC(=O)c1oc2ccc3c(c2c1C)C(=O)CC(C)(C)O3 | -1.67%

Compound | inhibition
Cc1cc2oc(C(=O)Nc3c(C(=O)Nc4ccccc4)oc4ccccc34)cc(=O)c2cc1C | 5.62%
Cc1cccn2c(=O)c(C(=O)NCCCN3CCCCC3C)c(O)nc12 (stereo not given) | 0.838%
O=C(Cn1ncc2c1-c1ccccc1OC2)N1CCN(c2ccccc2F)CC1 | -3.28%
COc1ccccc1CNC(=O)C1CCCN(S(=O)(=O)c2ccc3c(c2)CCCN3C(C)=O)C1 (stereo not given) | -3.09%
CC1CCC(NC(=O)c2ccc3c(c2)N(Cc2ccccc2)C(=O)c2ccccc2S3=O)CC1 (stereo not given) | 26.3%
CCOC(=O)c1c(C)[nH]c(CCC(=O)Nc2cc(C)ccc2OC)c1C | -1.25%
CCOC(=O)c1cccc(NC(=O)CN2C(=O)c3ccccc3Sc3ncccc32)c1 | -4.33%
COc1cc(NC(=O)CC2C(=O)N(c3ccc(Cl)cc3)C(=O)N2Cc2cccs2)cc(OC)c1 (stereo not given) | 15.3%
Cc1ccc(C(=O)NCc2ccc(N(C)C)cc2)cc1NC(=O)c1nsc2ccccc12 | -5.09%
COc1ccc(CNC(=O)c2cnc3sc(N4CCCC4)nn3c2=O)cc1OC | 4.75%
O=C(CSc1c2c(nc3ccc(Cl)cc13)CCCC2)N1CCN(c2cccc(Cl)c2)CC1 | 6.19%
Cc1ccc2c(c1)C(c1ccc(F)cc1)N(C(=O)COc1ccc(Cl)cc1Cl)CC(=O)N2 (stereo not given) | 3.12%
Cc1cc2ncn(CCCCOc3ccccc3)c2cc1C | 7.25%
COc1cccc2cc(C(C)OC(=O)Nc3ccc(C)cc3)oc12 (stereo not given) | active: 32.2%
Cc1ccc(N2CCN(CC3CC=CCC3)CC2)cc1 (stereo not given) | active: 36.5%
CCc1nn2c(=O)cc(COC(=O)c3cccc(NC(=O)c4ccccc4Cl)c3)nc2s1 | 5.08%
O=[N+]([O-])c1cc([N+](=O)[O-])c(Oc2cccnc2Br)cc1NN1CCCCC1 | active: 34.8%
COC(=O)c1ccc(CN2CCCC(CO)(Cc3ccccc3F)C2)cc1 (stereo not given) | active: 83.7%
Cc1ccc(CNC(=O)C2CCCN(S(=O)(=O)c3cccc4nsnc34)C2)cc1 (stereo not given) | -1.7%
CCc1ccc2c(c1)c(=O)c(S(=O)(=O)c1ccc(F)cc1)cn2CC(=O)Nc1ccc(C)cc1C | 9.55%
CCOC(=O)c1ccc(Nc2c(-c3ccc(O)c(OC)c3)nc3nc[nH]n23)cc1 | 9.86%
Cc1cc(F)ccc1S(=O)(=O)NCC(c1ccco1)S(=O)(=O)c1cccs1 (stereo not given) | -0.593%
CC1Cc2cc(S(=O)(=O)N3CCN(c4ccccc4F)CC3)ccc2N1C(=O)C1CCC1 (stereo not given) | -7.89%
Cc1cc(C)c(S(=O)(=O)N/N=C/c2ccc3c(c2)OCO3)c(C)c1 | active: 73.8%

Compound | inhibition
Cc1cc2nnc(SCC(=O)Nc3ccc(F)c(Cl)c3)n2c2ccccc12 | -0.245%
CC(=O)c1c(C)nc2nc(-c3ccccc3)nn2c1C | 27.5%
COC(=O)C1=C(CS(=O)(=O)c2cc(Cl)ccc2OC)NC(=O)NC1c1ccccc1 (stereo not given) | -0.601%
CCCCOc1ccc(C(=O)N2CCN(CCc3ccncc3)CC2)cc1 | 0.692%
COCCCNC(=O)c1oc2c(c1C)-c1nn(Cc3cccc(Cl)c3)cc1CC2 | 18.3%
CCN1CCN(CCCNC(=O)c2cc3c(=O)n(C)c4ccccc4c3s2)CC1 | -6.71%
O=C(NCCc1ccccc1)c1cnc2sc(N3CCCC3)nn2c1=O | -4.16%
CCCc1nn2c(=O)cc(COC(=O)c3cccc(NC(=O)COc4ccccc4C)c3)nc2s1 | -2.7%
Cc1cccc(OCCn2c(-c3ccc(Cl)cc3)nc3ccccc3c2=O)c1 | 5.71%
Cc1ccccc1-c1nc(CS(=O)(=O)CC(=O)NCC(C)c2ccccc2)c(C)o1 (stereo not given) | 16.2%
CCc1ccccc1NC(=O)Cn1c(=O)n(Cc2ccc3c(c2)OCO3)c(=O)c2ccc(C(=O)NC3CCCCC3)cc21 | -13.1%
O=C(COc1ccccc1Cl)NCC1(N2CCOCC2)CCCCC1 | -2.74%
COc1cc(OC)c(NC(=O)C2CCCN(c3ncnc4c3nc3n4CCCCC3)C2)cc1Cl (stereo not given) | -10.6%
CCc1ccc(OCC(=O)Nc2cc3oc4ccccc4c3cc2OC)cc1 | 4.37%
Cc1ccn2c(Nc3ccc4c(c3)OCCO4)c(-c3cccs3)nc2c1 | 10.6%
Cc1ccc2c(c1)Cc1c(nc(-c3ccc(Cl)cc3)nc1SCC(=O)N1CCCCC1)O2 | -15.1%
Cc1ccc2onc(CNC(=O)Nc3cc(F)ccc3F)c2c1 | 23.6%
Cc1ccc(NC(=O)C(CC(C)C)NS(=O)(=O)c2ccc3c(c2)oc(=O)n3C)c(C)c1 (stereo not given) | 19.9%
Cc1ccc(Cl)cc1NC(c1ccc(F)cc1)c1nnc(-c2ccccc2)o1 (stereo not given) | 0.837%
O=C(CC1NCCc2ccccc21)Nc1ccc(Cl)cc1 (stereo not given) | active: 43.8%
COc1ccc(Nc2cc(C)nc3c(C)c(C)ccc23)cc1 | 7.02%
CCc1ccc(C2CC(=O)c3c([nH]c(C(=O)OCCOc4ccccc4)c3C)C2)cc1 (stereo not given) | 10.2%
O=C(CSc1nnc(-c2ccc(Cl)cc2)o1)Nc1ccc(F)cc1 | 7.06%
